The list shows a part of the results.
How the values were obtained:
HSkMC = human skeletal muscle cells; assay: cytotoxicity call (relative viability < 0.9); settings: 10 µM
HepG2 = assay: cytotoxicity call (relative viability < 0.9); settings: 10 µM
S. aureus RN4220 = assay: growth inhibition call (relative growth <= 0.2); settings: 50 µM

SMILES	cytotoxicity call (HSkMC)	cytotoxicity call (HepG2)	growth inhibition call (S. aureus RN4220)
C[C@@H]1CN([C@H](C)CO)C(=O)Cc2cc(NC(=O)Cn3cnnn3)ccc2O[C@H]1CN(C)C(=O)Nc1ccccc1	inactive	inactive	inactive
C[C@@H]1CN([C@@H](C)CO)C(=O)c2cc(NS(=O)(=O)c3ccc(Cl)cc3)ccc2O[C@@H]1CN(C)S(=O)(=O)c1cn(C)cn1	inactive	inactive	inactive
C[C@@H]1CN([C@@H](C)CO)C(=O)c2cc(NC(=O)C3CC3)ccc2O[C@@H]1CN(C)S(=O)(=O)c1ccc(F)cc1	inactive	inactive	inactive
C[C@@H]1CN([C@@H](C)CO)C(=O)c2cc(C#CCN(C)C)cnc2O[C@H]1CN(C)Cc1cccc(C(=O)O)c1	inactive	inactive	inactive
Clc1cccn2nnnc12	inactive	inactive	inactive
O=C(CCn1ccc(=O)[nH]c1=O)Nc1ccc2c(c1)NC(=O)CO2	inactive	inactive	inactive
C[C@@H]1CN([C@@H](C)CO)C(=O)c2cc(NC(=O)Nc3ccc(F)cc3)ccc2O[C@@H]1CN(C)C(=O)Nc1ccc(C(F)(F)F)cc1	active	inactive	inactive
C[C@H]1CN([C@@H](C)CO)C(=O)c2cc(NC(=O)Cc3ccccc3)ccc2O[C@@H]1CN(C)Cc1ccc(Oc2ccccc2)cc1	inactive	active	inactive
C[C@H]1CN([C@@H](C)CO)C(=O)Cc2cc(NS(=O)(=O)c3ccc(F)cc3)ccc2O[C@H]1CN(C)Cc1ccc(Cl)c(Cl)c1	inactive	active	inactive
COc1ccc(NC(=O)N(C)C[C@@H]2OCCCC[C@H](C)Oc3ccc(NC(=O)Nc4ccc(F)cc4)cc3C(=O)N([C@@H](C)CO)C[C@@H]2C)cc1	inactive	inactive	inactive
NC(=S)NCc1ccco1	inactive	inactive	inactive
COc1ccccc1S(=O)(=O)N(C)C[C@@H]1OCc2cnnn2CCCC(=O)N([C@H](C)CO)C[C@@H]1C	inactive	inactive	inactive
C[C@H]1CC/C=C\[C@H]2O[C@@]34C=CCN(Cn5nnc6ccccc65)C(=O)[C@H]3N(CCCCCO)C(=O)[C@@H]4[C@@H]2C(=O)O1	inactive	inactive	inactive
COc1ccc(S(=O)(=O)N(C)C[C@H]2Oc3ccc(NS(=O)(=O)c4c(C)noc4C)cc3C(=O)N([C@@H](C)CO)C[C@H]2C)cc1	inactive	inactive	inactive
C[C@H]1CCCCO[C@H](CN(C)C(=O)Cc2ccccc2)[C@@H](C)CN([C@@H](C)CO)C(=O)c2cc(NC(=O)NC3CCCCC3)ccc2O1	inactive	inactive	inactive
Cn1nnnc1SCC1=C(C(=O)[O-])N2C(=O)C(NC(=O)C(OC=O)c3ccccc3)C2SC1.[Na+] (stereo not drawn)	inactive	inactive	active
CN1CCN(C(=O)C[C@H]2CC[C@H]3[C@@H](COC[C@@H](O)CN3S(=O)(=O)c3cccc(Cl)c3)O2)CC1	inactive	inactive	inactive
C[C@H]1CN([C@@H](C)CO)C(=O)c2cccc(NC(=O)C3CCOCC3)c2O[C@@H]1CN(C)C(=O)Nc1ccccc1	inactive	inactive	inactive
O=C(C[C@H]1C[C@@H]2c3cc(NC(=O)c4ccc5c(c4)OCO5)ccc3O[C@@H]2[C@@H](CO)O1)NCCc1ccccc1	inactive	inactive	inactive

SMILES	cytotoxicity call (HSkMC)	cytotoxicity call (HepG2)	growth inhibition call (S. aureus RN4220)
CCS(=O)(=O)N1C[C@]2(CN(Cc3ccc4c(c3)OCO4)[C@H](CO)c3c2c2ccc(cc2n3C)OC)C1	inactive	inactive	inactive
COc1ccc(CNC(=O)C[C@@H]2C[C@H]3c4cc(NS(=O)(=O)c5ccc(F)cc5)ccc4O[C@H]3[C@@H](CO)O2)cc1	inactive	inactive	inactive
Nc1c2c(nc3ccccc13)CCCC2	inactive	inactive	inactive
Cc1noc(C)c1NC(=O)N(C)C[C@@H]1Oc2ccc(NC(=O)c3ccncc3)cc2C(=O)N([C@@H](C)CO)C[C@H]1C	inactive	inactive	inactive
C[C@@H]1CN([C@@H](C)CO)C(=O)c2cc(NC(=O)CCCCCC(=O)Nc3ccccc3N)ccc2O[C@@H]1CN(C)S(C)(=O)=O	inactive	inactive	inactive
CC(=O)Nc1ccc(O)cc1	inactive	inactive	inactive
COc1ccc(NC(=O)Nc2ccc3c(c2)[C@@H]2C[C@@H](CC(=O)NCc4ccncc4)O[C@@H](CO)[C@@H]2O3)cc1	inactive	inactive	inactive
COc1ccc(NC(=O)N(C)C[C@H]2Oc3c(NS(C)(=O)=O)cccc3C(=O)N([C@H](C)CO)C[C@H]2C)cc1	inactive	inactive	inactive
C[C@@H]1CN([C@H](C)CO)C(=O)c2cc(-c3cccnc3)cnc2O[C@H]1CN(C)Cc1ccc(Oc2ccccc2)cc1	inactive	inactive	inactive
CC(=O)NCC(=O)O.CC(=O)NCC(=O)O.N=C(N)c1ccc(N=NNc2ccc(C(=N)N)cc2)cc1	inactive	inactive	inactive
COc1cccc(C#Cc2cnc3c(c2)C(=O)N([C@@H](C)CO)C[C@H](C)[C@H](CN(C)C(=O)C2CCC2)O3)c1	inactive	inactive	inactive
C[C@@H]1CN([C@H](C)CO)C(=O)c2cc(NS(=O)(=O)c3cccs3)ccc2O[C@H]1CN(C)S(=O)(=O)c1ccccc1	inactive	inactive	inactive
Cc1nc(-c2ccccc2)cs1	inactive	inactive	inactive
C[C@@H]1CN([C@@H](C)CO)C(=O)Cc2cc(NC(=O)CCN3CCOCC3)ccc2O[C@H]1CN(C)C(=O)Nc1ccc(F)cc1	inactive	inactive	inactive
C[C@@H]1CN([C@@H](C)CO)C(=O)c2cccc(NS(C)(=O)=O)c2O[C@H]1CN(C)S(=O)(=O)c1ccc(F)cc1	inactive	inactive	inactive
Cc1noc(C)c1NC(=O)Nc1ccc2c(c1)C(=O)N([C@@H](C)CO)C[C@H](C)[C@H](CN(C)Cc1ccc(C(=O)Nc3ccccc3N)cc1)O2	inactive	inactive	inactive
Cc1noc(C)c1NC(=O)N(C)C[C@H]1OCCCC[C@H](C)Oc2ccc(NS(=O)(=O)c3ccc(Cl)cc3)cc2C(=O)N([C@H](C)CO)C[C@@H]1C	inactive	inactive	inactive
COc1ccc(S(=O)(=O)N(C)C[C@H]2Oc3c(NS(=O)(=O)c4ccc(C)cc4)cccc3C(=O)N([C@H](C)CO)C[C@H]2C)cc1	inactive	inactive	inactive
COc1cc2c3cc1Oc1cc(ccc1O)CC1c4c(cc(OC)c(O)c4Oc4ccc(cc4)CC3N(C)CC2)CC[N+]1(C)C.Cl.O.O.O.O.O.[Cl-] (stereo not drawn)	inactive	inactive	inactive

SMILES	cytotoxicity call (HSkMC)	cytotoxicity call (HepG2)	growth inhibition call (S. aureus RN4220)
COC(=O)c1c2oc(c1C(=O)OC)C(=O)N(C)Cc1cn(nn1)C[C@@H](Cc1ccccc1)NC(=O)N[C@H](CO)CC2	inactive	inactive	inactive
C[C@H](O)C#Cc1ccc2c(c1)O[C@@H](CN(C)C(=O)c1ccccc1)[C@@H](C)CN([C@H](C)CO)S2(=O)=O	inactive	inactive	inactive
COCC#Cc1cnc2c(c1)C(=O)N([C@@H](C)CO)C[C@H](C)[C@H](CN(C)S(=O)(=O)c1cccc(OC)c1)O2	inactive	inactive	inactive
CO[C@@H]1CN(C)C(=O)c2ccc(NC(C)=O)cc2OC[C@@H](C)N(S(=O)(=O)c2cn(C)cn2)C[C@@H]1C	inactive	inactive	inactive
CN1CCN(C(=O)C[C@H]2CC[C@@H]3[C@H](COC[C@H](O)CN3C(=O)C3CCCC3)O2)CC1	inactive	inactive	inactive
C[C@@H]1CCCCO[C@@H](CN(C)S(=O)(=O)c2ccc(F)cc2)[C@@H](C)CN([C@H](C)CO)C(=O)c2cc(NS(=O)(=O)c3ccc(Cl)cc3)ccc2O1	inactive	inactive	inactive
CN1CCN(C(=O)C[C@@H]2CC[C@H]3[C@@H](COC[C@H](O)CN3CC3CCCC3)O2)CC1	inactive	inactive	inactive
CC(C)NC(=O)Nc1cccc2c1O[C@H](CN(C)Cc1ccc(-c3ccccc3)cc1)[C@@H](C)CN([C@@H](C)CO)C2=O	inactive	active	inactive
C[C@@H]1CN([C@@H](C)CO)C(=O)Cc2cc(NC(=O)CCC(F)(F)F)ccc2O[C@H]1CN(C)S(C)(=O)=O	inactive	inactive	inactive
C[C@@H]1CN([C@@H](C)CO)C(=O)Cc2cc(NC(=O)Nc3ccc(C(F)(F)F)cc3)ccc2O[C@@H]1CN(C)Cc1ccncc1	inactive	active	inactive
COc1ccc(NC(=O)Nc2cccc3c2O[C@H](CN(C)S(=O)(=O)c2cn(C)cn2)[C@@H](C)CN([C@H](C)CO)C3=O)cc1	inactive	inactive	inactive
C[C@@H]1CCCCO[C@@H](CN(C)C(=O)C2CCCCC2)[C@@H](C)CN([C@@H](C)CO)C(=O)c2cc(NC(=O)c3ccncc3)ccc2O1	inactive	inactive	inactive
C[C@@H]1CN([C@H](C)CO)C(=O)c2cccc(NC(=O)c3ccncc3)c2O[C@H]1CN(C)S(=O)(=O)c1ccccc1	inactive	inactive	inactive
CCCNC(=O)Nc1ccc2c(c1)OC[C@H](C)N(Cc1ccc(-c3ccccn3)cc1)C[C@H](C)[C@H](OC)CN(C)C2=O	inactive	inactive	inactive
C[C@@H]1CCCCO[C@@H](CN(C)Cc2ccc3c(c2)OCO3)[C@H](C)CN([C@@H](C)CO)C(=O)c2cc(NS(=O)(=O)c3cccs3)ccc2O1	inactive	inactive	inactive
C[C@H](N)C(=O)O	inactive	inactive	inactive
Cc1noc(C)c1NC(=O)Nc1cccc2c1O[C@@H](CN(C)C(=O)Nc1ccc(C(F)(F)F)cc1)[C@@H](C)CN([C@@H](C)CO)C2=O	inactive	inactive	inactive
C[C@H](CO)N1C[C@H](C)[C@H](CN(C)S(=O)(=O)c2cccc(C#N)c2)OCc2cnnn2CCCC1=O	inactive	inactive	inactive

From the antibiotic and cytotoxicity screens of Wong et al. (2023)
